This note sets out measurements from patent US20060257397A1 (CRUCELL HOLLAND B V, published 2006).

For assay [1], the target named is T1, CD80 (UniProt P33681 35-288, limits assumed).
T1 construct: whole, on cells; also called A431 cell line transfected with CD80
T1 sequence (looked up): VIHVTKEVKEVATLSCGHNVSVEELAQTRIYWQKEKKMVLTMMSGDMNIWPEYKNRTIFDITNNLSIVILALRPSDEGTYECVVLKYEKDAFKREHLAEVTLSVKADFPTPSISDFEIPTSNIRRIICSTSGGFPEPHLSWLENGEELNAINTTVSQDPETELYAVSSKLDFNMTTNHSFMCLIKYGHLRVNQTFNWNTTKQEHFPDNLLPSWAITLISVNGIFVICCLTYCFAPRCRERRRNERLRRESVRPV
Nature of the assay: flow cytometry, phage antibody on transfected A431 cells. As to the method:
(§1) In total, three selection rounds were performed and after both the second and third round, phage antibodies were tested for specific binding on a variety of cell-types, i.e., cultured DCs, PBLs, tonsil and synovial fluid cell suspensions, several cell lines including K562, U266, IM9, U937, THP, CEM, Fravel, HL60, Raji, RPMI8226, HepgII, HELA, HT29 and Jurkatt, a C1R cell line transfected with the molecule CD1a, and A431 cell lines transfected with the molecules CD80, CD83, and CD86. For staining of cells, 100 μl of the phage antibodies were blocked by adding 50 μl of PBS containing 4% milk powder for 15 minutes at room temperature. Next, 5×10⁵ cells in 50 μl of PBS containing 1% BSA were added to the blocked phage antibodies and the mixture obtained was incubated on ice for one hour. After that, the obtained mixture was washed three times with 200 μl PBS containing 1% BSA. To detect cell-bound phage antibodies, the cells were incubated with 20 μl of a 1:800 dilution of sheep anti-M13 polyclonal antibody for 20 minutes on ice. Thereafter, the cells were washed with PBS containing 1% BSA and incubated with 20 μl of a 1:700 dilution of PE-conjugated donkey anti-sheep polyclonal antibody for 20 minutes on ice.
(§2) To visualize DCs the cells were washed again with PBS containing 1% BSA, stained with 10 μl 1:10 diluted FITC-conjugated anti-CD1a antibody (BD PharMingen) and suspended in 200 μl of PBS containing 1% BSA. Flow cytometric analyses were performed using a FACScan (Becton Dickinson).
(§3) The twenty scFv phage antibodies derived from the selections described above bound exclusively to the cell line transfected with CD1a (see lower right panel of FIG. 2 for binding of the representative scFv phage antibody called SC02-113 to the CD1a-transfected cell line). The C1R cells transfected with vector containing a CD1a insert were clearly positive, whereas the C1R cell line transfected with vector without CD1a insert (mock-transfected) was negative after staining with the phage antibodies (see lower left panel of FIG. 2 for binding of the representative scFv phage antibody called SC02-113 to the mock-transfected cell line). The A431 cell lines transfected with CD80, CD83 and CD86 were negative after staining with the phage antibodies (data not shown).
In general terms: Flow cytometry measures light scatter and fluorescence of single cells or particles in a stream.

Assay [2] concerns the target T2, CD86 (UniProt P42081 24-329, limits assumed).
T2 construct: whole, on cells; also called A431 cell line transfected with CD86
T2 sequence (looked up): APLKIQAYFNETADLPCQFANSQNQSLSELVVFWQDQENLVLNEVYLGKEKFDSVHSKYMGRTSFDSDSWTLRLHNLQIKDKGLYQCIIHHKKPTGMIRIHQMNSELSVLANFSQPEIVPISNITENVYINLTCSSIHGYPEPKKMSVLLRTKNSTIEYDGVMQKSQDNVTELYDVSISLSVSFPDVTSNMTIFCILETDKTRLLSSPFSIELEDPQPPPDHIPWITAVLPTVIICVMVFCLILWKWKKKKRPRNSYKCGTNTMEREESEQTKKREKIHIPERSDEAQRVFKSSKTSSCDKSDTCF
The assay is described as above. As to the method:
as §1, §2, §3

The target of assay [3] is T3, CD83 (UniProt Q01151 20-205, limits assumed).
T3 construct: whole, on cells; also called A431 cell line transfected with CD83
T3 sequence (looked up): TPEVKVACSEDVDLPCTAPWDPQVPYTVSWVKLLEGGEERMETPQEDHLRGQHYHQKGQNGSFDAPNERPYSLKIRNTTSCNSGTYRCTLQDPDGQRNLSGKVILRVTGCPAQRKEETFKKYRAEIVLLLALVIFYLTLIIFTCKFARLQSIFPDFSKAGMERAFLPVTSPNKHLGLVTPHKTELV
The assay is described as above. As to the method: as §1, §2, §3

The target in assay [4] is T4, human CD1a (human, UniProt P06126).
T4 construct: whole, on cells; also called C1R-CD1a; CR1-CD1a
T4 sequence (P06126 17-327): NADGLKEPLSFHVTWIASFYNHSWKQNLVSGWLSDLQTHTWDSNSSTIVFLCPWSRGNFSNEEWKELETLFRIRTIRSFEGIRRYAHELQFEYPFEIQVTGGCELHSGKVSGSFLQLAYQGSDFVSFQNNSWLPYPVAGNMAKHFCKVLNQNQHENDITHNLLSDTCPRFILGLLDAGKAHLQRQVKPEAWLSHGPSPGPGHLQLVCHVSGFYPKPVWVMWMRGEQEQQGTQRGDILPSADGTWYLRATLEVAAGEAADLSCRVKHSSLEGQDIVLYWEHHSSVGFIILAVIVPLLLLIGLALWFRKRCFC
The assay can be described thus: flow cytometry, phage antibody on C1R cells transfected with CD1a. As to the method:
as §1, §2, §3

B1: scFv phage antibody SC02-114 (scFv)
scFv: EVQLVESGGGLVQPGGSLRLSCAASGFTFSSYSMNWVRQAPGKGLEWVSYISSSSSTIYYADSVKGRFTISRDNAKNSLYLQMNSLRDEDTAVYYCAKETWWQSFDYWGQGTLVTVSSGGGGSGGGGSGGGGSEIELTQSPSSLSASVGDRVTIT[about 80 residues omitted]FGQGTKVEIKR
For B1, the binding result is given as “no binding” in assay [1], “no binding” in assay [2], “no binding” in assay [3] and “binds” in assay [4].

B2: scFv phage antibody SC02-116 (scFv)
scFv: [about 100 residues omitted]DALWLAFDYWGQGTLVTVSSGGGGSGGGGSGGGGSEIELTQSPSSLSASVGDRVTITCRASQSISSYLNWYQQKPGKAPKLLIYAASSLQSGVPSRFSGSGSGTDFTLTISSLQPEDFATYYCAQRSYPPPKFGQGTKVDIKR
On to B2, for which the binding result in assay [1], in assay [2] and in assay [3] was “no binding” in each case.

B3: scFv phage antibody SC02-113 (scFv)
scFv: QVQLQESGAGLLKPSETLSLTCAVYGGSFSGYYWSWIRQPPGKGLEWIGYIYYSGSTNYNPSLKSRVTISVDTSKNQFSLKLSSVTAADTAVYYCAKAPYMMYFDSWGQGTLVTVSSGGGGSGGGGSGGGGSEIELTQSPSSLSASVGDRVTIT[about 80 residues omitted]FGQGTKVEIKR
Regarding B3, the binding result in assay [1] is on record as “no binding”; in assay [2], “no binding”; in assay [3], “no binding”; in assay [4], “binds”.

B4: scFv phage antibody SC02-117 (scFv)
scFv: EVQLVESGGGLVHPGGSLRLSCAGSGFTFSSYAMHWVRQAPGKGLEWVSAIGTGGGTYYADSVKGRFTISRDNAKNSLYLQMNSLRAEDTAVYYCARSTPWFSFDYWGQGTLVTVSSGGGGSGGGGSGGGGSEIELTQSPSSLSASVGDRVTIT[about 80 residues omitted]FGQGTKVEIKR
With B4, the binding result in assay [1] is listed as “no binding”; in assay [2] it was “no binding”; in assay [3], “no binding”; in assay [4] it was “binds”.

B5: scFv phage antibody SC02-118 (scFv)
scFv: EVQLVESGGGQVHPGGSLRLSCAGSGFTFSSYAMHWVRQAPGKGLEWVSAISTGGGTYYADSVKGRFTISRDNAKNSLYLQMNSLRAEDTAVYYCARSAWWLSFDSWGQGTLVTVSSGGGGSGGGGSGGGGSEIELTQSPSSLSASVGDRVTIT[about 80 residues omitted]FGQGTKVEIKR
Regarding B5, the binding result in assay [1] was “no binding”; in assay [2], “no binding”; in assay [3] it was “no binding”; in assay [4], “binds”.
